Measured values published in PubChem BioAssay (NCATS).
Where “and” joins values, the source holds several entries; their conditions need not be identical. Identical values can stand only once. Inconclusive results, whose numbers are uncertain, are shown with a selection of clear calls. For part of these data: Potencies of inconclusive entries are doubtful fits and often do not repeat. Calls of active or inactive are those of the source. Unless noted, the call rests on the fitted dose curve; in most records, active means well fitted curve in the direction sought with a large enough effect; inconclusive means small, poorly fitted or top-dose-only effect, or another doubt; inactive means no such curve, though single readings can be large; an effect the other way counts as inactive or inconclusive.

Assays:
[1] = target: 3',5'-cyclic-AMP phosphodiesterase 4B (Homo sapiens) (UniProt Q07343); assay: qHTS Assay for Inhibitors of PDE-IV (AID 607; active means well fitted activation curve with a large enough effect in the main read-out, with a control signal flat, not every such curve was filed as active; inconclusive means small, poorly fitted or top-dose-only effect, or effect the other way, or a change in a side signal; further: potency means the concentration at half of the fitted maximal effect; on activation (PDE inhibition): % of control where 0% means no effect); settings: HEK293 ACTOne CNG channel cells, membrane potential fluorescence; activation (PDE inhibition): at 22.9 µM (top of the series)
Outline: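 The readout is membrane depolarisation from a cAMP-sensing CNG channel, detected with a potential dye at ex 535/em 590. Cells were HEK293-derived (endogenous PDE-IV) at 1000 cells/well, titrated up to 22.9 uM final.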

[2] = qHTS Assay for Lipid Storage Modulators (AID 1519; calls by dose curve; further: on the % scale 0 is the no-effect control and ±100 the full control effect); settings: Drosophila S3 cells, BODIPY lipid droplet/cell ratio, laser cytometry, cells loaded with oleic acid; activity change, negative = inhibition: at 57.5 µM (top of the series) unless noted
Outline: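 Cells seeded at 5,000 per well were treated with compounds over a concentration series and loaded with oleic acid (400 uM, as added). Lipid droplet fluorescence (488 nm excitation, 500-530 nm channel) was read by laser-scanning cytometry and normalized to 20 uM Triacsin C.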

[3] = target: Ubiquitin carboxyl-terminal hydrolase 1 (Homo sapiens) (UniProt O94782); assay: Inhibitors of USP1/UAF1: Pilot qHTS (AID 504865); further: potency means the concentration at half of the fitted maximal effect;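 further: rhodamine fluorescence freed from ubiquitin-rhodamine substrate followed over time; nearly all actives have a fitted effect of over 35% in size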
Outline: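 Deubiquitinase activity followed as kinetic rhodamine fluorescence release from 150 nM Ub-Rho. 1 nM USP1/UAF1 with compound, after 15 min room-temperature preincubation, in HEPES pH 7.8 buffer containing TCEP, EDTA, BSA and Tween-20.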

[4] = test system: Zika virus NS2B-NS3 protease; assay: Primary screen GU AMC qHTS for Zika virus inhibitors (AID 1347154); further: nearly all actives have a fitted effect of over 70% in size; further: potency means the concentration at half of the fitted maximal effect;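 on activity change, negative = inhibition: 0% = no-inhibitor control and -100% = no-enzyme control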
Outline: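 Unlinked Zika NS2B hydrophilic domain/NS3 protease domain noncovalent complex (25 nM final) in 10 mM Tris-HCl pH 8.0, 0.01% Tween 20, with AMC peptide substrate. Fluorescence (ex 340, em 450 nm) change over 15 min, room temperature; percent inhibition fitted to 4-parameter Hill equation.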

[5] = target: Rap guanine nucleotide exchange factor 4 (Homo sapiens) (UniProt Q8WZA2); assay: Confirmatory qHTS for antagonist of cAMP-regulated guanine nucleotide exchange factor 4 (EPAC2) (AID 1645885); settings: activity change, negative = inhibition: at 12.7 µM (top of the series) unless noted; further: potency means the concentration at half of the fitted maximal effect; nearly all actives have a fitted effect of over 25% in size
[6] = Primary qHTS for small molecule stabilizers of the endoplasmic reticulum resident proteome: Secreted ER Calcium Modulated Protein (SERCaMP) assay (AID 1508630); settings: SH-SY5Y GLuc-SERCaMP (Gaussia luciferase released on ER calcium loss) secretion, thapsigargin, luminescence; activity change, negative = inhibition: at 38.4 µM (top of the series) unless noted; further: potency means the concentration at half of the fitted maximal effect; on activity change, negative = inhibition: on the % scale 0 is the no-effect control and ±100 the full control effect
Outline: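 The SH-SY5Y reporter protocol was run at 3 concentrations up to 38.3 uM (primary) or 11 concentrations (follow-up): 16 h compound, 100 nM thapsigargin for 4 h, then extracellular luciferase luminescence.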

[7] = target: Mitogen-activated protein kinase 10 (Mus musculus) (UniProt Q61831); assay: JNK3 AlphaScreen Assay (AID 530; active means well fitted curve in either direction with a large enough effect, not every such curve was filed as active; inconclusive means small, poorly fitted or top-dose-only effect, or another doubt;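 further: kinase came from lysate of stimulated human HepG2 cells; signal reports phosphorylation of biotinylated GST-cJun 1-79 at Ser73 with 10 µM ATP; potency means the concentration at half of the fitted maximal effect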); settings: JNK3 lysate, c-Jun phosphorylation; activity change, negative = inhibition: at 57.1 µM (top of the series)
Outline: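 Phosphorylation of biotinylated GST-cJun(1-79) at Ser73 is measured by AlphaScreen proximity luminescence. Enzyme is JNK3 in HepG2 lysates activated with interleukin-1beta and tumor necrosis factor alpha; ATP is 10 uM final.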

[8] = target: Cytochrome P450 3A4 (Homo sapiens) (UniProt P08684); assay: qHTS Assay for Inhibitors and Substrates of Cytochrome P450 3A4 (AID 884); settings: recombinant CYP3A4, Luciferin-PPXE luminescence; activity change, negative = inhibition: at 57.1 µM (top of the series); further: potency means the concentration at half of the fitted maximal effect; nearly all actives have a fitted effect of over 50% in size
Outline: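 Luminescent readout of luciferin produced by CYP3A4 (20 nM) dealkylation of Luciferin-PPXE, 25 uM (its KM). NADPH-driven reaction ran 60 min at RT after 10 min compound preincubation; data scaled to 57 uM ketoconazole as 100% inhibition.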

[9] = target: Cytochrome P450 2C19 (Homo sapiens) (UniProt P33261); assay: qHTS Assay for Inhibitors and Substrates of Cytochrome P450 2C19 (AID 899); further: potency means the concentration at half of the fitted maximal effect; nearly all actives have a fitted effect of over 60% in size
Outline: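 Human CYP2C19 (5nM) with Luciferin-H EGE at 10uM (its KM) in 50mM KPO4 was preincubated with compound for 10 min at 37C. NADPH regeneration started a 60 min 37C reaction. Luciferin was read by luminescence, normalized to 57uM ketoconazole.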

[10] = target: Rap guanine nucleotide exchange factor 4 (Homo sapiens) (UniProt Q8WZA2); assay: Confirmatory qHTS for agonist of cAMP-regulated guanine nucleotide exchange factor 4 (EPAC2) (AID 1645884); settings: EPAC2 GEF activity, Rap1B-BODIPY-GDP fluorescence; activation: at 154 µM (top of the series), percent relative to cAMP agonist control;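 further: nucleotide exchange releases bodipy-GDP from Rap1 and this lowers its fluorescence; potency means the concentration at half of the fitted maximal effect; nearly all actives have a fitted effect of over 65% in size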
[11] = AP1 Signaling Pathway (AID 357; active means well fitted curve in either direction with a large enough effect, not every such curve was filed as active; inconclusive means small, poorly fitted or top-dose-only effect, or another doubt; further: top concentration of the series differs between compounds; on the % scale 0 is the no-effect control and ±100 the full control effect); settings: ME-180 (cervical carcinoma) AP-1-bla reporter, EGF-induced, beta-lactamase ratio, 5 h; at 7.69 µM (top of the series) unless noted
Outline: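 AP-1-bla ME-180 cells with beta-lactamase reporter under AP-1 response element, stimulated with EC50 EGF; compounds titrated, 5 hours at 37 degrees Celsius. CCF4 read at 460/530 nm ratio; positive and negative modulators judged by AC50.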

[12] = NFAT Signaling Pathway (AID 444; active means well fitted curve in either direction with a large enough effect, not every such curve was filed as active; inconclusive means small, poorly fitted or top-dose-only effect, or another doubt;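 further: carbachol stimulus at about its EC50 of 1 µM final; on the % scale 0 is the no-effect control and ±100 the full control effect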); settings: Jurkat NFAT-bla M1, carbachol, beta-lactamase ratio, 5 h
Outline: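 Jurkat cells carrying an NFAT-driven β-lactamase reporter and co-transfected muscarinic M1 receptor were treated with compound plus carbachol (1 uM final, an EC50 level) for 5 h at 37 °C. CCF4 loading followed for 1 h at RT; 460/530 nm ratio gave %activity.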

[13] = qHTS Assay for Identification of Small Molecule Antagonists for Thrombopoietin (TPO) Signaling Pathway (AID 918); settings: TPO-dependent cell signaling reporter, antagonist mode; activity change, negative = inhibition: at 38.5 µM (top of the series); further: nearly all actives have a fitted effect of over 60% in size
Outline: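 Inhibition read as reduced luciferase luminescence after 24 h at 37 C in IL-3-deprived Ba/F3 cells carrying human TPO receptor and GPIIb-promoter reporter, stimulated with 26 pM TPO (final, its EC50) alongside compound.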

[14] = target: Muscarinic acetylcholine receptor M1 (Rattus norvegicus) (UniProt P08482); assay: qHTS Assay for Antagonists of Acetylcholine Muscarinic M1 Receptor: Measurement of IP-One Response (AID 944); further: nearly all actives have a fitted effect of over 75% in size
Tags describe the fitted curve by direction and shape.

UniProt Q8WZA2, sequence (Q8WZA2 whole entry, looked up): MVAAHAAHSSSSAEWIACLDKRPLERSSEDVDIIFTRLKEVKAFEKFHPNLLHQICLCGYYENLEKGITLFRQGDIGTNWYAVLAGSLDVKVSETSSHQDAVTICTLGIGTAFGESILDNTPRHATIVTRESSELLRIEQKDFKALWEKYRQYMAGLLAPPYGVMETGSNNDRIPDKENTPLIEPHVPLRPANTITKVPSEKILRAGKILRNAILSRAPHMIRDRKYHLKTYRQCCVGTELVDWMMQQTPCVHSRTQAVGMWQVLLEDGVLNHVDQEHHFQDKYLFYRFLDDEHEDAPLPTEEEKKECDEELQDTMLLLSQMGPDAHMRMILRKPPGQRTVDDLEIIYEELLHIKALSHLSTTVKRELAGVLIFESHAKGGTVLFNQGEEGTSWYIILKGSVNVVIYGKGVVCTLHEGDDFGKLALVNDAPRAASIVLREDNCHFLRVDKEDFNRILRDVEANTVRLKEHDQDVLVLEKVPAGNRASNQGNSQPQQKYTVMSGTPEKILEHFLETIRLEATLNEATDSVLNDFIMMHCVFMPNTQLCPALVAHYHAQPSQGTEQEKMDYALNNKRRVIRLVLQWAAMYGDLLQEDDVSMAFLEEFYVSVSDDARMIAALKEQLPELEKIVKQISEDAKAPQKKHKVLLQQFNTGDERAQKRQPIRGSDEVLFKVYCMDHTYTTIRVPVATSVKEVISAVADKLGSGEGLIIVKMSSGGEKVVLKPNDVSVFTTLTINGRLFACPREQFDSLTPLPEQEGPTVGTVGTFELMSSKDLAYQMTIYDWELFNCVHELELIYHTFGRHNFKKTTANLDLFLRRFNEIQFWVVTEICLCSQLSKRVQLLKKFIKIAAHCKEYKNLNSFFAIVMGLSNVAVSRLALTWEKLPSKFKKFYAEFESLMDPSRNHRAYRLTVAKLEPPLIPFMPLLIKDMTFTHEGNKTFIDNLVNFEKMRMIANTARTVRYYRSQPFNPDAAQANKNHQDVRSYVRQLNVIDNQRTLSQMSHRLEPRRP
UniProt Q07343, sequence (Q07343 whole entry, looked up): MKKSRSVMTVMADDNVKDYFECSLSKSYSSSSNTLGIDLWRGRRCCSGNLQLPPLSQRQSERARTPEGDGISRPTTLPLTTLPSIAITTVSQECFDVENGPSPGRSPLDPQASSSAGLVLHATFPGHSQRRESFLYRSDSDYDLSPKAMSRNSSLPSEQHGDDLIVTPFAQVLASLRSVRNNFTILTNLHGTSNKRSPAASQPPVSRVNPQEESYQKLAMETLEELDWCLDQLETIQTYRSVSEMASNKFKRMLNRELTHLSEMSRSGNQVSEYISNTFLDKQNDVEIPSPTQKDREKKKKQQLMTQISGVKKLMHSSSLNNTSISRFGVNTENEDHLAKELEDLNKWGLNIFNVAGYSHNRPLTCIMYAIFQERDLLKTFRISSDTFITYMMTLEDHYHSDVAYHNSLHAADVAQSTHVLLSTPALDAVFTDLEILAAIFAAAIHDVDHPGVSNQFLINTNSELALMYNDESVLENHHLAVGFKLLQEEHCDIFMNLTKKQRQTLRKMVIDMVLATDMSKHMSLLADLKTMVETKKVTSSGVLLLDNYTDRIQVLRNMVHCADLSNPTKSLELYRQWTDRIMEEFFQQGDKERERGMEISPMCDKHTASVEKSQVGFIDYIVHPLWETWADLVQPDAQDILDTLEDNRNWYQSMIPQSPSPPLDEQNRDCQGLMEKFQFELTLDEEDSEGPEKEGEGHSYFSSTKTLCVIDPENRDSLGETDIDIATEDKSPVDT
UniProt O94782, sequence (O94782 whole entry, looked up): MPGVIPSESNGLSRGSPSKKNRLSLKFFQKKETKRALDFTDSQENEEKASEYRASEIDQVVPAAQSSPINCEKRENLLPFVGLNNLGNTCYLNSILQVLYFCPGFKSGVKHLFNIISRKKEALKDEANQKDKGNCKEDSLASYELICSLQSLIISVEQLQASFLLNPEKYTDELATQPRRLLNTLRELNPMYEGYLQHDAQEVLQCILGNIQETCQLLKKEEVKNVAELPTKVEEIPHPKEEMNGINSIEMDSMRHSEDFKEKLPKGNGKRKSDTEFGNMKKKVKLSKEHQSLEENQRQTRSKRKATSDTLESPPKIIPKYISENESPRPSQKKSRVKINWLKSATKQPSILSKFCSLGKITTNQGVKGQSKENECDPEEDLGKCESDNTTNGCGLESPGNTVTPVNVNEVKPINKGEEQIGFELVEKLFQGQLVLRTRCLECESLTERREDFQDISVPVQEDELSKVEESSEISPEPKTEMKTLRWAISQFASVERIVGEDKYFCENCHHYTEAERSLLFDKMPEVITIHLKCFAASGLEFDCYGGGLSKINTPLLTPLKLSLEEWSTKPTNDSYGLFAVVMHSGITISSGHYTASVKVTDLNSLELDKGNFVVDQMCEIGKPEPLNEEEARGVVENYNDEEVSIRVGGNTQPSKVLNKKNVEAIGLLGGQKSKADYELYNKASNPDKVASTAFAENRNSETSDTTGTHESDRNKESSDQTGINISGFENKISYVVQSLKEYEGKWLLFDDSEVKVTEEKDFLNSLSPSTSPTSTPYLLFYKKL
UniProt P08482, sequence (P08482 whole entry, looked up): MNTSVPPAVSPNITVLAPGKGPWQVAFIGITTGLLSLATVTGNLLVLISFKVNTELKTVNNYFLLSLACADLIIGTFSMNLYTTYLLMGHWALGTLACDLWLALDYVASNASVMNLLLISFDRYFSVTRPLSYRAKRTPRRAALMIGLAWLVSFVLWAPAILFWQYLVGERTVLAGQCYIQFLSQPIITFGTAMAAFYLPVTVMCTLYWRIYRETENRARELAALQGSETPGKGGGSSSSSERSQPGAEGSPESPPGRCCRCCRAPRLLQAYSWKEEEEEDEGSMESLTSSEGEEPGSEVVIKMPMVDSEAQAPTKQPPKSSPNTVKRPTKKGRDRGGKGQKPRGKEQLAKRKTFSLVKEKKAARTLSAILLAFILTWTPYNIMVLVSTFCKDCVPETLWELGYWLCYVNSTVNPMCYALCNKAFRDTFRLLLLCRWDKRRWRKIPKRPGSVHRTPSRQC
UniProt P08684, sequence (P08684 whole entry, looked up): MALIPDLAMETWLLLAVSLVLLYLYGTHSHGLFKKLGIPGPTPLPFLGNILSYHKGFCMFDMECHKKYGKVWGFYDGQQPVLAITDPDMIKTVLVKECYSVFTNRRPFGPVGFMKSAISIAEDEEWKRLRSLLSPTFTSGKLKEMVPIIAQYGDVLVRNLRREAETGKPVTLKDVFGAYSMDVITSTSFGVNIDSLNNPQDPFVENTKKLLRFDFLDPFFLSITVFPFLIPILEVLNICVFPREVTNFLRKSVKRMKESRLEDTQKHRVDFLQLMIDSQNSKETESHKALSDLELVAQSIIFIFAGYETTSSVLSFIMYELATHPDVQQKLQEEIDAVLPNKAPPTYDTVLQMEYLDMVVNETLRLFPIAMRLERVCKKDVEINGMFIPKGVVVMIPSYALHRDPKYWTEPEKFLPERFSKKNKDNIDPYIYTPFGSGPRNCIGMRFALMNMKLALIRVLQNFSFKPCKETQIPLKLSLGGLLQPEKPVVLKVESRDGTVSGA
UniProt P33261, sequence (P33261 whole entry, looked up): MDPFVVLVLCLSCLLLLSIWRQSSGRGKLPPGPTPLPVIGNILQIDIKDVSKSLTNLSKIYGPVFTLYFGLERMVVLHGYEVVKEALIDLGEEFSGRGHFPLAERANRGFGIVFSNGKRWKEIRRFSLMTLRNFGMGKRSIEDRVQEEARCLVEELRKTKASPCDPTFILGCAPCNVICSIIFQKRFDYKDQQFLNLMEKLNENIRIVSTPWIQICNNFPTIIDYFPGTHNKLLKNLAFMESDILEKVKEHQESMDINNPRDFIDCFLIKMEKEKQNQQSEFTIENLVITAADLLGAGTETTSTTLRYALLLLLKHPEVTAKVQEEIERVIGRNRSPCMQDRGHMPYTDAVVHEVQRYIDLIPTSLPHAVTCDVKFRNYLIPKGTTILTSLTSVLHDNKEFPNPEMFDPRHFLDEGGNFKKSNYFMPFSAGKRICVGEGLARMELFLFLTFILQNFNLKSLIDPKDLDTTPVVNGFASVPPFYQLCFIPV

CCC(=O)N[C@@H]1Cc2ccccc2[C@@H](c2ccccc2)C1
Potency [1]: inconclusive: 15.1 µM [rising, partial curve]
Potency [2]: inactive
Potency [3]: inconclusive: 56.2 µM [inhibitor, partial curve, poor fit]
Potency [4]: inactive
Potency [5]: inconclusive: 55.5 µM [inhibitor, partial curve]

O=C(Nc1cc(NC(=O)c2ccccc2)c(C(=O)O)cc1C(=O)O)c1ccccc1
Potency [4]: inconclusive: 29.9 µM [inhibitor, single point]
Potency [6]: inconclusive: 31.6 µM [inhibitor, partial curve, poor fit]

C=CCN1CCc2c(cc(O)c(O)c2Cl)C(c2cccc(C)c2)C1 (stereo not given)
Potency [4]: inconclusive: 3.36 µM [inhibitor, full curve]
Potency [6]: inconclusive: 22.4 µM [inhibitor, single point]

COc1cc(OC)c(C(=O)CCCCN2CCC3(CC2)NC(=O)NC3=O)cc1NS(=O)(=O)c1ccc(C(F)(F)F)cc1
Potency [7]: inconclusive: 39.8 µM [inhibitor, single point]
Potency [8]: inconclusive: 7.94 µM [inhibitor, full curve]
Potency [3]: inconclusive: 56.2 µM [inhibitor, partial curve, poor fit]
Potency [4]: inactive
Potency [6]: inactive

COC(=O)C1=C(C)NC(C)=C(C(=O)OCCSc2ccccc2)[C@@H]1C
Potency [7]: inconclusive: 63.1 µM [activator, partial curve, poor fit]
Potency [1]: inconclusive: 15.1 µM [activator, partial curve]
Potency [9]: active: 199 nM
Potency [3]: inconclusive: 50.1 µM [inhibitor, partial curve, poor fit]
Potency [4]: inconclusive: 26.7 µM [inhibitor, single point]
Potency [10]: inconclusive: 12.6 µM [activator, partial curve, poor fit]
Potency [5]: inconclusive: 39.3 µM [inhibitor, partial curve]

C[C@H](N=C(NC#N)Nc1ccncc1)C(C)(C)C
activity change, negative = inhibition [11]: inconclusive: -18.5% [inhibitor] [at 17.2 µM]
activity change, negative = inhibition ([12]; at 17.2 µM (top of the series)): inactive: 5.32%
activity change, negative = inhibition ([12]; at 38 µM (top of the series)): inactive: 6.54%
Potency [7]: inconclusive: 0.0631 µM [activator, full curve, poor fit]
Potency [1]: inactive and inconclusive: 9.51 µM [activator, partial curve]
activity change, negative = inhibition [13]: inconclusive: -17.9% [phenotype inactive]
Potency [14]: inactive
Potency [3]: inactive
Potency [4]: inactive
